These compounds were tested on E. coli strain AW574. Conditions: single terpene 2 μMol; bacterial growth compared to control, 24 hours.
`C=C(C)C1CC=C(C)C(=O)C1` (stereo not drawn) [Carvone] was tested, and the “% growth” value was 63.00%.
In the case of `CC(C)=CCC/C(C)=C/CO` [Geraniol], the “% growth” value is reported as 54.00%.
In the case of `CC(=O)/C=C/C1=C(C)CCCC1(C)C` [b-ionone], the “% growth” value is reported as 84.00%.

Reference: US20030180349A1, “Respiratory infection prevention and treatment with terpene-containing compositions” (priority 2001, published 2003)
